The chains are these.
B1: LINE1-full (parent)
chain: UACGUAGGUGGUUUUCCCCUGAUAGUGCUAAGGGGGCCUGGAAGUUUGGACUGGGCAGAGCUCAACACAGCGUGGCAAAGUGGCUGUGGCUAGACUGCCUCUCUGGAUUCCUCGUCACUCAGCAGGGCAUCUCUGAGAGAAAUGCC

The source gives no read counts; variants with many changes may rest on few reads.

In this data set the parent is B1. Kind of data set: self-cleavage, relative activity (ratio to wild type); higher = more cleavage; in vitro, sequencing; the parent is a self-cleaving ribozyme.
On to UACGUAGGUGGUUUUCCCCUGAUAGUGCUAAGGGGGCCUGGAAGUUUGGACUGGGCAGGGCCCAACACAGCGAGGCAAAGUGGCUGUGGCUAGACUGCCUCUCUGGAUUCCUCGUCACCCAGCAGGGCAUCUCUGAGAGAAAUGCC [A59G U62C U73A U119C], for which the self-cleavage came to 0.42.

Regarding UACGUAGGUGGUUUUCCCCUGAUAGUGCUAAGGGGGCCUGGAAGUUUGGACUGGGCAGGGCUCAACACAGCGAGGCAAAGUGGCUGUGGCUAGACUGCCUCUCUGGAUUCCUCAUCACUCAGCAGGGCAUCUCUGAGAGAAAUGCC [A59G U73A G114A], the self-cleavage came to 0.06.

Take UACGUAGGUGGUUUUCCCCUGAUAGUGCUAAGGGGGCCUGGAAGUUUGGACUGGGCAGGGCUCAACACAGCGUGGCAAAGUGACUGUGGCUAGACUGCCUCUCUGGAUUCCCCGUCACUCAGCAGGGCAUCUCUGAGAGAAAUGCC [A59G G83A U112C]: the self-cleavage turned out to be 0.

Regarding UACGUAGGUGGUUUUCCCCUGAUAGUGCUAAGGGGGCCUGGAAGUUUGGACUGGGCAGGGCUCAACACAGCGUGGCAAAGUGGCUGUGGCUAGACUGCCUAUCUGGAUUCCCCGUCACUCAGCAGGGCAUCUCUGAGAGAAAUGCC [A59G C101A U112C], the self-cleavage was 0.08.

On to UACGUAGGUGGUUUUCCCCUGAUAGUGCUAAGGGGGCCUGGAAGUUUGGACUGGGCAGGGCUCAACACAGCGUGGCAAAGUGGCUGUGGCUAGACUGCCUCUCUGGAUUCCUCGUCACUCAUCAGGGCAUCUCUGAGAGAGAUGCC [A59G G122U A141G], for which the self-cleavage turned out to be 0.02.

For UACGUAGGUGGUUUUCCCCUGAUAGUGCUAAGGGGGCCUGGAAGUUUGGACUGGGCAGGGCUCAACACAGCGUGGCAAAGUGGCUGUGGCUAGACUGCCUCUCUGGAUUACUCGUCACUCAGCAGGGCAUCUCUGAGGGAAAUGCC [A59G C110A A138G], the self-cleavage was determined as 0.07.

UACGUAGGUGGUUUUCCCCUGAUAGUGCUAAGGGGGCCUGGAAGUUUGGACUGGGCAGGGCCCAACACAGCGUGGCAAAGUGGCUGUGGCUAGACCGCCUCUCUGGAUUCCUCGUCACUCAGCAGGGCACCUCUGAGAGAAAUGCC [A59G U62C U96C U130C]: the self-cleavage amounted to 0.

With UACGUAGGUGGUUUUCCCCUGAUAGUGCUAAGGGGGCCUGGAAGUUUGGACUGGGCAGGGCUCAACACAGCGUGGCAAAGUGGCUGUGGCUAGACUGCCUCUCUGGAUUCCUCGUCAUUCAGCAGGGCAUCUCUGUGAGAAAUGCC [A59G C118U A136U], the self-cleavage stood at 0.12.

Turning to UACGUAGGUGGUUUUCCCCUGAUAGUGCUAAGGGGGCCUGGAAGUUUGGACUGGGCAGGGCUCAACACAGCGUGGCAAAGAGGCUGUGGCUAGACUGCCUCUCUGGACUCCUCGUCACUCAGCAGGGCAUCUCUGAGAGAAAAGCC [A59G U81A U108C U143A], the self-cleavage was 0.

In the case of UACGUAGGUGGUUUUCCCCUGAUAGUGCUAAGGGGGCCUGGAAGUUUGGACUGGGCAGGGCUCAACACAGCGAGGCAAAGAGGCUGUGGCUAGACUGCCUCUCUGGAUUCCUCGUCACUCAGCAGGGCAUCUCUGAGAGAAAUGCC [A59G U73A U81A], the self-cleavage is 0.11.

With UACGUAGGUGGUUUUCCCCUGAUAGUGCUAAGGGGGCCUGGAAGUUUGGACUGGGCAGGGCUCAACACAGCGUGACGAAGAGGCUGUGGCUAGACUGCCUCUCUGGAUUCCUCGUCACUCAGCUGGGCAUCUCUGAGAGAAAUGCC [A59G G75A A77G U81A A124U], the self-cleavage turned out to be 0.16.

In the case of UACGUAGGUGGUUUUCCCCUGAUAGUGCUAAGGGGGCCUGGAAGUUUGGACUGGGCAGGGCUCAACACAGCGUGGCAAAGUGGCUGUGGCUAGACUGCCUCUCUGGAUUCCUCGUCACUUAGCAGGGCGUCUCUGAGAGAAAUGCC [A59G C120U A129G], the self-cleavage was 0.08.

For UACGUAGGUGGUUUUCCCCUGAUAGUGCUAAGGGGGCCUGGAAGUUUGGACUGGGCAGGGCUCAACACAGCGUGGCAAAGUGGCUGUGGCUAGACUGCCUCUCUGGAUUCCUCGUCACUCAUCAGGGCAUCUCCGAGAGAAAUGCC [A59G G122U U134C], the self-cleavage was 0.09.

As to UACGUAGGUGGUUUUCCCCUGAUAGUGCUAAGGGGGCCUGGAAGUUUGGACUGGGCAGGGCCCAACACAGCGUGGCAAAGUGGCUGUGGCUAGACUGCCUCUCUGGAUUCCUCGUCACUCAGCAGGGCAUCUCCGAGAGAAAUGCC [A59G U62C U134C], the self-cleavage came out at 0.

On to UACGUAGGUGGUUUUCCCCUGAUAGUGCUAAGGGGGCCUGGAAGUUUGGACUGGGCAGGGCUCAACACAGCGAGGCAAUGUGGCUGUGGCUAGACUGCCUCUCUGGAUUCCUCGUCACUCAGCAGGGCAUCUCUGAGAGAAAUGCC [A59G U73A A79U], for which the self-cleavage was found to be 0.02.

Consider UACGUAGGUGGUUUUCCCCUGAUAGUGCUAAGGGGGCCUGGAAGUUUGGACUGGGCAGGGCUCAACACAGCGUGGCAAAGUGUCUGUGGCUAGACUGCCUCUCUGGAUUCCUCGUCACUCAGCAGGGCAUCUCUGAGGGAAAUGCC [A59G G83U A138G], for which the self-cleavage was 0.05.

On to UACGUAGGUGGUUUUCCCCUGAUAGUGCUAAGGGGGCCUGGAAGUUUGGACUGGGCAGGGCACAACACAGCGUGGCAGAGUGGCUGUGGCUAGACUGCCUCCCUGGAUUCCUCGUCACUCAGCAGGGCUUCUCUGAGAGAAAUGCC [A59G U62A A78G U102C A129U], for which the self-cleavage was found to be 0.

Regarding UACGUAGGUGGUUUUCCCCUGAUAGUGCUAAGGGGGCCUGGAAGUUUGGACUGGGCAGGGCUCAACACAGCGUGGCAAAGUGGCUGCGGCUAGACUGCCUCUCUGGGUUCCUCGUCACUCAGCAGGGUAUCUCUGAGAGAAAUGCC [A59G U87C A107G C128U], the self-cleavage came out at 0.

Turning to UACGUAGGUGGUUUUCCCCUGAUAGUGCUAAGGGGGCCUGGAAGUUUGGACUGGGCAGGGCUCAACACAGCGUGGCAAAGAGGCUGCGGCUAGACUGCCUCUCUGGAUUCCUCGUCACUCAGCUGGGCAUCCCUGAGAGAAAUGCC [A59G U81A U87C A124U U132C], the self-cleavage was 0.

Regarding UACGUAGGUGGUUUUCCCCUGAUAGUGCUAAGGGGGCCUGGAAGUUUGGACUGGGCAGGGCCCAACACAGCGUGGCAAAGUGGCUGUGGCUAGACUGCCUCUCUGGAUUCCUCGUCACCCAGCAGGGCAUCUCUGAGAGAAAUGCC [A59G U62C U119C], the self-cleavage was determined as 0.05.
